# T1: purified human Sortilin extracellular domain (human, UniProt Q99523 78-755)
# T1 construct: also called immobilized Sortilin; NTR-3
# T1 sequence: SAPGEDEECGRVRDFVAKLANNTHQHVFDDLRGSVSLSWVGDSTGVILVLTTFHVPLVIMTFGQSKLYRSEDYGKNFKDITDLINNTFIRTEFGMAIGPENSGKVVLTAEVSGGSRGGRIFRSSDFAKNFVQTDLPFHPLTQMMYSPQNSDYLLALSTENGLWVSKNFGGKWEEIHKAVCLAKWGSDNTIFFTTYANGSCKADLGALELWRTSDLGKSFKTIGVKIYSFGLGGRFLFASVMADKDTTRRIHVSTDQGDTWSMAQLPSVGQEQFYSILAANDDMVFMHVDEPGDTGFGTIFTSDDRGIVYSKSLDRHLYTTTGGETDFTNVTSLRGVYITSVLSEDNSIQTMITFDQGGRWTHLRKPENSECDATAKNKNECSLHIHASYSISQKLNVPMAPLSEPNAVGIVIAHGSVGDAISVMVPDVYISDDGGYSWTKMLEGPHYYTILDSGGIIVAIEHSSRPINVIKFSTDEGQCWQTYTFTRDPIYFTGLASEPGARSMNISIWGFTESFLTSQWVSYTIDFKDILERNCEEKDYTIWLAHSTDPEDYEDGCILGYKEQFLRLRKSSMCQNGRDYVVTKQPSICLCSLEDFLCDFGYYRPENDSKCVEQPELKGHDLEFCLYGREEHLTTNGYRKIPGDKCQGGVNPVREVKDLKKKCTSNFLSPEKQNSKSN
# What was measured:
# [1] = molecular target: T2, recombinant human TrkA/Fc chimera (R&D Systems) (human, UniProt P04629-2 34-407); assay: SPR (BIAcore), 25-500 nM proNGF over TrkA-IgG-Fc immobilized at 66 fmol/mm2
# T2 construct: Bought reagent; also called TrkA-IgG-Fc; not shown: IgG Fc of the bought chimera
# Experimental: (§1) FIG. 3: Characterization of proNGF binding to p75, TrkA, and Sortilin as measured by surface plasmon resonance analysis (BIAcore). Binding of 25-500 nM proNGF was measured to 91.5 fmol/mm² immobilized p75-IgG-Fc chimeric protein (upper panel), to 66 fmol/mm² immobilized TrkA-IgG-Fc (middle panel), and to 51 fmol/mm² purified Sortilin extracellular domain (lower panel).
# [2] = molecular target: T1, purified human Sortilin extracellular …; assay: SPR (BIAcore), 25-500 nM proNGF over Sortilin extracellular domain immobilized at 51 fmol/mm2
# Experimental: as §1
binder,measurement,setting,value
"Human recombinant proNGF (produced in E. coli) (ligand, The end 241 is the end of the entry as printed) not shown",Kd,[1],~15 nM
same,Kd,[2],~5 nM

# Source: patent US20070264195A1 (H LUNDBECK A S, published 2007)
